The campaign covered roughly 52,000 compounds. About 4,300 (8.3%) were called active. Rule as the data show it: active = survival mostly below about 52% (no sharp cut-off); inactive = mostly above about 56%. The list shows a part of the results.
The molecules below were run on DeltatarO mutant (assay: growth inhibition of S. aureus wild type versus tarO mutant, primary screen, teichoic acid synthesis inhibitors, RN4220, OD600 (AID 463173)). Settings: OD600, 18 h, stronger effect = lower value, screened at 18.75 µg/mL (by protocol).

| SMILES | survival |
| --- | --- |
| O=S(=O)(c1ccccc1)c1nc(-c2cccs2)oc1SCc1ccc(F)cc1 | inactive: 67% |
| COc1ccc(S(=O)(=O)c2cc(NS(=O)(=O)c3ccc(Cl)cc3)c(C)c(C)c2O)cc1 | inactive: 70% |
| COc1ccc(NC(=O)c2cnc[nH]2)cc1 | inactive: 138% |
| CCc1nn(CC(=O)NCc2ccccc2Cl)c(=O)c2cccn12 | inactive: 63% |
| Cc1nc(-c2ccc(S(=O)(=O)Nc3ccc(C)c(N(C)C)c3)cc2)co1 | inactive: 83% |
| CCC(=O)Nc1nc2cc(Cl)c(C)cc2s1 | inactive: 69% |
| COc1ccc(CCNC(=O)c2ccc3c(c2)N(Cc2ccc(F)cc2)CCS3)cc1OC | inactive: 96% |
| Cc1cc(C)cc(NC(=O)c2cccc3c2C(=O)N(C2CCCCC2)C3)c1 | active: 33% |
| O=C(COc1ccccc1[N+](=O)[O-])Nc1ccc(-c2nc3ccccc3s2)cc1 | inactive: 63% |
| CCCN1C(=O)c2ccccc2NC1c1ccc(C)cc1 (stereo not drawn) | inactive: 59% |
| O=C(c1ccc(CSc2nc3ccncc3n2Cc2ccccc2)cc1)N1CCCCCC1 | inactive: 70% |
| Cc1cccc2cc(CNCC3CCCO3)c(Cl)nc12 (stereo not drawn) | inactive: 79% |
| Cc1ccc(Cl)cc1-n1ncc2c(Nc3cccc(C)c3C)ncnc21 | inactive: 82% |
| Cc1ccc(-n2nc(C(=O)N3CCN(c4cc(Cl)ccc4C)CC3)c3c4ccccc4n(C)c3c2=O)cc1 | inactive: 91% |
| Cc1ccc(NC(=O)Cn2ccn(-c3ccc(F)c(F)c3)c(=O)c2=O)cc1C | inactive: 79% |
| COc1ccccc1CCNS(=O)(=O)c1ccc(N2CCCCS2(=O)=O)cc1 | inactive: 86% |
| COc1ccc(NC(=O)CCc2nnc3n(CC(C)C)c(=O)c4ccccc4n23)cc1 | inactive: 84% |
| COc1ccc(CNC(=O)c2ccc(CS(=O)Cc3ccccc3Cl)o2)cc1 (stereo not drawn) | inactive: 89% |
| Cc1ccc(C2c3[nH]c4ccccc4c3CCN2C(=O)CCC2CCCC2)cc1 (stereo not drawn) | inactive: 80% |
| Cc1nc2ccn(Cc3ccco3)c(=O)c2cc1C(=O)N1CCN(c2ccccc2)CC1 | inactive: 80% |

| SMILES | survival |
| --- | --- |
| CCc1ccccc1NC(=O)C1CCCN(c2ncnc3onc(C)c23)C1 (stereo not drawn) | inactive: 78% |
| Cc1ccc2nc(-c3cccnc3)c(Nc3ccccc3C)n2c1 | inactive: 102% |
| Cc1cnc(C(=O)Nc2ccc(S(=O)(=O)NC(C)C)cc2)cn1 | inactive: 90% |
| CCOc1ccc(S(=O)(=O)Nc2nc3ccccc3nc2Nc2ccc(OC)cc2)cc1 | inactive: 68% |
| CCCNC(=O)CCSc1nc(-c2ccc3c(c2)OCO3)cc(C(F)(F)F)n1 | inactive: 68% |
| C=Cc1ccc(CSc2nc(-c3ccc(C)cc3)nc3c2Cc2c(CO)cnc(C)c2O3)cc1 | inactive: 81% |
| CC(C)c1ccc(OCC(=O)N(Cc2ccc(N(C)C)cc2)C2CCS(=O)(=O)C2)cc1 (stereo not drawn) | active: 43% |
| O=C(Nc1cccc(C(=O)OCc2cc(=O)n3c4c(sc3n2)CCCC4)c1)c1ccccc1 | inactive: 102% |
| Cc1cccc(NC(=O)C(NS(=O)(=O)c2ccc3c(c2)oc(=O)n3C)C(C)C)c1 (stereo not drawn) | inactive: 100% |
| O=c1c(S(=O)(=O)c2cccc(Cl)c2)cn(Cc2ccccc2)c2cc(N3CCOCC3)c(F)cc12 | inactive: 83% |
| COc1ccc2ncc3c(-c4ccc(C)c(C)c4)nn(CC(=O)NC4CCCC4)c3c2c1 | inactive: 101% |
| COc1ccc(-c2nc3c(c(SCC(=O)N(C)c4ccccc4)n2)Cc2cc(C)ccc2O3)cc1 | inactive: 95% |
| CCCCNC(=O)C1CCC(CNS(=O)(=O)c2ccc(NC(C)=O)cc2)CC1 (stereo not drawn) | inactive: 83% |
| CCN(CC)c1ccc(NC(=O)Cn2nc(C)n3cccc3c2=O)c(C)c1 | inactive: 98% |
| CCCC(C)C(=O)Nc1ccc(OC)cc1 (stereo not drawn) | inactive: 91% |
| COc1cc(CCC(=O)NCc2ccc3c(c2)CCN3C(=O)c2ccc(F)cc2)cc(OC)c1OC | inactive: 85% |
| Cc1ccc(-c2nnc(N(CC(C)C)C(=O)c3ccco3)s2)cc1 | inactive: 78% |
| CC1CCN(C(=O)CN(C)S(=O)(=O)c2ccc3ccccc3c2)CC1 | inactive: 103% |
| CCOC(=O)c1c(SCC(=O)Nc2cc(Cl)cc(Cl)c2)nc(=O)[nH]c1C | inactive: 81% |
| CCC(=O)Nc1ccc(C(=O)CSc2nnc(-c3ccc(O)cc3)n2CC2CCCO2)cc1 (stereo not drawn) | inactive: 55% |

| SMILES | survival |
| --- | --- |
| CCc1ccc(CNCc2c(C(=O)O)n(Cc3ccc(F)cc3Cl)c3cc(OC)ccc23)cc1 | inactive: 111% |
| O=C(c1ccc(F)cc1)n1nc(-c2ccccc2)nc1NCc1ccc(F)cc1 | active: 30% |
| COc1cc2ccccc2cc1C(=O)N1CCN(c2nc3ccc(F)cc3s2)CC1 | inactive: 87% |
| CCc1ccccc1NC(=O)CCc1c(C)nn(-c2ccc(N3CCOCC3)nn2)c1C | inactive: 125% |
| CCc1nn2c(=O)cc(COC(=O)c3ccccc3NC(=O)C3CCCCC3)nc2s1 | inactive: 76% |
| COc1ccc(-c2nc3n(c(=O)c2C#N)CCS3)cc1 | inactive: 84% |
| Cc1ccc(CN(Cc2ccco2)C(=O)COc2ccc(Cl)cc2)o1 | inactive: 59% |
| CCc1ccccc1NS(=O)(=O)c1ccc(NC(=O)N2CCCC2)cc1 | inactive: 72% |
| COc1cc(NC(=O)c2cc3ccccn3n2)cc(OC)c1OC | inactive: 69% |
| COc1ccccc1NC(=O)CC(C)(C)C | inactive: 102% |
| CCOc1ccc(-c2cc(-c3nc(-c4cc(OC)c(OC)c(OC)c4)no3)[nH]n2)cc1 | inactive: 119% |
| CN(C(=O)c1cc2c(s1)-c1ccc(Cl)cc1SC2)c1cccc(C(F)(F)F)c1 | inactive: 65% |
| COc1ccc(CCNC(=O)c2cnc3sc(N4CCCC4)nn3c2=O)cc1OC | inactive: 80% |
| CCOc1ccc(-c2nnc(-c3ccc(Br)cc3)o2)cc1OCC | inactive: 75% |
| Cc1ccc(CNC(=O)c2nnn(CC(=O)Nc3cc(C)ccc3C)c2N)cc1 | inactive: 94% |
| CCn1c(SCC(=O)Nc2cccc(Cl)c2C)nnc1C1CC1 | inactive: 89% |
| CCn1nnnc1SCC(=O)N1c2ccccc2CCc2ccccc21 | inactive: 88% |
| COc1cc(NC(=O)c2cc(C)nc3c2c(C)nn3-c2ccccc2Cl)cc(OC)c1 | inactive: 62% |

Source: PubChem BioAssay AID463173 (ICCB-Longwood Screening Facility, Harvard Medical School, 2010)
